Measured values taken from publication PMC11930357, “A dynamic structural unit of phase-separated heterochromatin protein 1α as revealed by integrative structural analyses” (Nucleic Acids Research, 2025).

Target: the molecule itself
Test: SEC-MALS; Superdex 200 Increase, 20 mM sodium phosphate pH 7.0, 1 mM DTT, 50 mM NaCl; loading 249 μM HP1α, 307 μM pHP1α; other loading concentrations in Supplementary Fig. S3A

B1: Full-length HP1α_Ser97Ala (heterochromatin protein 1α), unphosphorylated (natural protein)
chain: not shown
notes: heterochromatin protein 1α (HP1α), human, full length with Ser97Ala; Expressed from a modified pET15b with a PreScission site; His-tag cut by HRV3C protease; also called HP1α_S97A; source: E. coli BL21 (DE3) star, purified (Ni Sepharose, HiTrap Heparin, Superdex 200)
In the case of B1, the “stoichiometry N” value is reported as 2.

B2: Full-length HP1α_Ser97Ala phosphorylated at Ser11, Ser12, Ser13 and Ser14 (natural protein)
chain: not shown
modifications: phosphoserine at Ser11, Ser12, Ser13 and Ser14
notes: heterochromatin protein 1α (HP1α), human, full length with Ser97Ala; Phosphorylation of the four serines confirmed by MALDI-TOF where necessary; also called pHP1α; pHP1α_S97A; source: E. coli BL21 (DE3) star, co-expressed with CK2 (pRSFduet), purified (Ni Sepharose, HiTrap Heparin, Superdex 200)
With B2 the “stoichiometry N” value was 2.
